# Where “and” joins values, the source holds several entries; their conditions need not be identical. Equal values may be shown once. Inconclusive results, whose numbers are uncertain, are shown with a selection of clear calls. For some assays here: Potencies beside an inconclusive call are fits to weak or partial responses and may not hold up. For some assays here: “Side channel” marks fits to a control or component signal instead of the main read-out. Calls of active or inactive are those of the source. Unless noted, calls come from the whole dose curve; as a rule, active = well fitted curve in the direction sought with a large enough effect; inconclusive = small, poorly fitted or top-dose-only effect, or another doubt; inactive = no such curve, though single readings can be large; an effect the other way counts as inactive or inconclusive.
# What was measured:
# [1] = qHTS Assay for Identification of Small Molecule Agonists for Hypoxia Response Element Signaling Pathway (AID 914; active = well fitted activation curve with a large enough effect in the signal ratio, with a control signal flat, not every such curve was filed as active; inconclusive = small, poorly fitted or top-dose-only effect, or effect the other way, or a change in a side signal; the % refers to the signal ratio; note: potency is the fitted concentration of half-maximal effect; for activation: top concentration of the series differs between compounds; % of control where 0% means no effect); conditions: ME-180 (cervical carcinoma) HRE-bla reporter, beta-lactamase ratio, CoCl2, 17 h; activation: stronger effect = higher value
# How it was run: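 Cells were plated overnight, pin-dosed with compound in a titration series, co-stimulated with EC50 CoCl2 and incubated 17 hours at 37 degrees Celsius. CCF4 substrate was then loaded, and AC50 values came from the 460nm/530nm ratio.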
# [2] = Cell Viability - Mesenchymal (AID 546); conditions: mesenchymal cells viability, qHTS; activity change, negative = cytotoxicity: at 91.7 µM (top of the series);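 note: cells exposed to compound for 40 hours before reading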
# How it was run: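 Human renal mesenchymal cells (glomerulus-derived), 1000 cells/well, 5 hr 37 °C pre-incubation; compound 40 hr, 37 °C; CellTiter-Glo, 20 min RT; luminescence; AC50 via Hill equation.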
# [3] = Cell Viability - LYMP2-019 (AID 973); note: potency is the fitted concentration of half-maximal effect; nearly all actives have a fitted effect of over 55% in size
# How it was run: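 Cytotoxicity is scored as a concentration-dependent drop in cellular ATP after cells (2500/well) receive compound for 24 hr at 37 C. Tetraoctylammonium bromide serves as positive control.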
# [4] = Cell Viability - LYMP2-023 (AID 975); note: potency is the fitted concentration of half-maximal effect; nearly all actives have a fitted effect of over 55% in size
# How it was run: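 Steps: seed 2500 human lymphoblastoid cells per well, incubate 5 hr at 37 C, add compound for 24 hr at 37 C, add CellTiter-Glo, hold 30 min at room temperature, read luminescence. AC50 derived by Hill modelling.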
# [5] = molecular target: Cytochrome P450 3A4 (Homo sapiens) (UniProt P08684); experiment: qHTS Assay for Inhibitors and Substrates of Cytochrome P450 3A4 (AID 884); note: nearly all actives have a fitted effect of over 50% in size; note: potency is the fitted concentration of half-maximal effect
# How it was run: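 Luminescent readout of luciferin produced by CYP3A4 (20 nM) dealkylation of Luciferin-PPXE, 25 uM (its KM). NADPH-driven reaction ran 60 min at RT after 10 min compound preincubation; data scaled to 57 uM ketoconazole as 100% inhibition.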
# [6] = Cell Viability - LYMP1-002 - Assay at 24 hr (AID 993); note: potency is the fitted concentration of half-maximal effect; for activity change, negative = cytotoxicity: % is set by controls: 0 for no effect and ±100 for the full control effect
# How it was run: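 Acute toxicity is measured as concentration-dependent loss of cellular ATP in a human lymphoblastoid line (Coriell LYMP1-002) after 24 h treatment in complete medium. ATP is quantified by luciferase luminescence and AC50 derived by Hill modelling.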
# [7] = Cellular Toxicity (caspase-3) Hek293 (AID 664); conditions: HEK293 caspase-3 activation, DMSO = 0%, 100 µM tamoxifen = 100%; at 92.2 µM (top of the series);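 note: cells exposed to compound for 16 h at 37 °C before readout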
# How it was run: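 qHTS, HEK293 (human embryonic kidney), 16 h cpd exposure in complete medium. Caspase-3/7 activation = luminescence increase; normalized to DMSO/100 uM tamoxifen; Hill-fit AC50.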
# [8] = Cell Viability - LYMP1-002 - Assay at 16 hr (AID 948); conditions: LYMP1-002 lymphoblastoid cell viability; note: potency is the fitted concentration of half-maximal effect
# How it was run: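 Seed 2500 LYMP1-002 cells per well in complete medium and hold 5 hr at 37 C. Add compound across a concentration series and incubate 16 hr at 37 C. Add CellTiter-Glo, wait 30 min at room temperature, read luminescence.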
# [9] = Cell Viability - LYMP2-013 (AID 970); conditions: LYMP2-013 lymphoblastoid cells viability; activity change, negative = cytotoxic: at 92.2 µM (top of the series); note: potency is the fitted concentration of half-maximal effect; nearly all actives have a fitted effect of over 55% in size
# How it was run: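 Cytotoxicity is scored as a concentration-dependent drop in intracellular ATP in human lymphoblastoid cells after 24 hr compound exposure at 37 C. ATP is quantified by luciferase luminescence, and AC50 values come from Hill-equation modeling.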
# [10] = Cell Viability - LYMP2-006 (AID 978); note: nearly all actives have a fitted effect of over 60% in size; note: potency is the fitted concentration of half-maximal effect; for activity change, negative = cytotoxicity: % is set by controls: 0 for no effect and ±100 for the full control effect
# How it was run: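 Cells are seeded at 2500 per well and rested 5 hr at 37 C. Compounds are added across a concentration series for 24 hr at 37 C, after which ATP is quantified by luciferase luminescence.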
# [11] = Cell Viability - Jurkat (AID 426;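 active = dose-dependent loss of cell ATP signal giving a full or clear fitted curve, ranked by lower potency value; inconclusive = weak partial curve or response only at the top dose; inactive = no loss of viability signal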;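 note: potency is the fitted concentration of half-maximal effect; cells exposed to compound for 40 hours at 37 °C before ATP read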); conditions: qHTS
# How it was run: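 Cells of the human T-cell leukemia line Jurkat (E6-1) are seeded at 5000 per well, treated with compound across a concentration range for 40 hours at 37 °C, then lysed with CellTiter-Glo; luminescence reports ATP.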
# [12] = Cell Viability - LYMP2-008 (AID 980); note: potency is the fitted concentration of half-maximal effect; nearly all actives have a fitted effect of over 60% in size
# How it was run: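 Cells seeded at 2500/well and rested 5 hr at 37 C; compounds added over a concentration range and incubated 24 hr at 37 C; CellTiter-Glo added, 30 min at room temperature; luminescence read and AC50 fitted with Hill model.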
# [13] = MultiTox-Fluor Cytotoxicity Assay - LYMP1-003 - Dead Cells (AID 961); note: potency is the fitted concentration of half-maximal effect; nearly all actives have a fitted effect of over 70% in size
# How it was run: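 Acute toxicity is scored as increased dead-cell protease activity in human lymphoblastoid LYMP1-003 cells after 16 h compound exposure in complete culture medium. Activity is normalized to DMSO basal and 15 uM tetraoctylammonium bromide as full response.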
# [14] = qHTS assay for small molecule agonists of the antioxidant response element (ARE) signaling pathway measured by Nrf2-dependant transcriptional activity - cell viability counter screen (AID 720653; active = well fitted curve in the direction sought with a large enough effect in the repeat runs; inconclusive = weak or mixed curves; inactive = no such curve, though single readings can be large; an effect the other way counts as inactive or inconclusive; note: potency is the fitted concentration of half-maximal effect); conditions: ARE-bla HepG2 viability, CellTiter-Glo ATP luminescence, 16 h; max response: stronger effect = lower value
# How it was run: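 ARE-bla HepG2 cells treated with compounds for 16 h at 37C; this counter screen measures viability as intracellular ATP by CellTiter-Glo luminescence after 30 min at room temperature.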
# [15] = qHTS assay for small molecule activators of the nuclear factor-kappa B (NF-kB) signaling pathway (AID 651749; active = well fitted activation curve with a large enough effect in the signal ratio; inconclusive = small, poorly fitted or top-dose-only effect, or a change in a side signal; the % refers to the signal ratio; note: potency is the fitted concentration of half-maximal effect; for activation: % of control where 0% means no effect); conditions: NF-kB-bla ME-180 cells, beta-lactamase FRET ratio, 16 h; activation: stronger effect = higher value
# How it was run: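 In this qHTS format, compounds acting as activators increase NF-kB-driven beta-lactamase in ME-180 cells, measured as disrupted FRET after 16 hr exposure at 37C and 5% CO2.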
# [16] = Cell Viability - MRC5 (AID 434; calls by dose curve;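 note: potency is the fitted concentration of half-maximal effect; potency reflects cytotoxicity seen as loss of intracellular ATP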); conditions: MRC5 lung fibroblast viability, qHTS
# How it was run: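 ATP luminescence read-out (CellTiter-Glo, 20 min RT) after 40 hr, 37 °C compound exposure of 1500 MRC5 cells/well. Data normalized to DMSO (basal) and 100 uM tamoxifen (100% inhibition); AC50 from standard Hill equation.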
# [17] = Cell Viability - LYMP1-002 - Assay at 40 hr (AID 994); note: potency is the fitted concentration of half-maximal effect; nearly all actives have a fitted effect of over 60% in size
# How it was run: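 Cells are plated at 2500 per well and rested 5 hr at 37 C. Compounds are added and incubated 40 hr at 37 C. CellTiter-Glo reagent is added for 30 min at room temperature before luminescence is read.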
# [18] = qHTS assay for cell viability of the p53RE-bla HCT-116 cell line (AID 743292); note: potency is the fitted concentration of half-maximal effect; nearly all actives have a fitted effect of over 55% in size
# How it was run: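 Quantitative high-throughput format: compounds in DMSO were pinned onto p53RE-bla HCT-116 cells (4,000/well) and incubated 16 h at 37 C. Total intracellular ATP, read by CellTiter-Glo luminescence, reflects viable cell number.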
# [19] = qHTS assay for small molecule disruptors of the mitochondrial membrane potential - 5 hr assay (AID 651755; calls by dose curve; note: potency is the fitted concentration of half-maximal effect; nearly all actives have a fitted effect of over 40% in size); conditions: JC-1-type ratio dye; ratio change, negative = disruption: at 92.2 µM (top of the series)
# How it was run: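 Read-out: ratiometric Mito-MPS fluorescence, green monomer (ex 490/em 535) vs red mitochondrial aggregate (ex 540/em 590). HepG2 cells treated 5 hr at 37C before 30 min dye loading.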
# [20] = Cell Viability - LYMP2-025 (AID 976); conditions: LYMP2-025 lymphoblastoid cell viability; activity change, negative = cytotoxicity: at 92.2 µM (top of the series); note: potency is the fitted concentration of half-maximal effect
# How it was run: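 Acute cytotoxicity is scored as a concentration-dependent fall in intracellular ATP, measured by luciferase luminescence, in human lymphoblastoid LYMP2-025 cells exposed to compound for 24 hours at 37 C. AC50 values come from standard Hill fits.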
# Tags give direction and shape of the fitted curve or compound fluorescence and quenching.
# Sequence of UniProt P08684 (P08684 whole entry, looked up): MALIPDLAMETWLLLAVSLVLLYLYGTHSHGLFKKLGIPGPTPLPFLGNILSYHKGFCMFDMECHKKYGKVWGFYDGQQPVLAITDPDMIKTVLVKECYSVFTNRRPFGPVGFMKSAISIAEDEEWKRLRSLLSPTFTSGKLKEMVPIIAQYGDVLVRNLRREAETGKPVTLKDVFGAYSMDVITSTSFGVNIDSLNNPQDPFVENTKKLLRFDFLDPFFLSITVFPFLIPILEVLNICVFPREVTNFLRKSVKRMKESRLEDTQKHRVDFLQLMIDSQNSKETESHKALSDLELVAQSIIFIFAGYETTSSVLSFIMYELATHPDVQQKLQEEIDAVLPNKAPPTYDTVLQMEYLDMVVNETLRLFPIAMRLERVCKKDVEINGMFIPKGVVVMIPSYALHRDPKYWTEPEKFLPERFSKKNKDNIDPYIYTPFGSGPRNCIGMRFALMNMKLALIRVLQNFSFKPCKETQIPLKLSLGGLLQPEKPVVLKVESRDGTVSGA
smiles,measurement,setting,value
CC(C)CNCCc1ccccn1,activation,[1],inactive: 5.07%
N#C/C=C/C#N,"activity change, negative = cytotoxicity",[2],inconclusive: -67.5%
same,Potency,[3],active: 31.6 µM
same,Potency,[4],active: 39.8 µM
c1cc(CCN2CCCCC2)ccn1,Potency,[5],"inconclusive: 6.31 µM [inhibitor, partial curve]"
Cc1ccc([N+](=O)[O-])cc1C,Potency,[6],inactive
O=C(O)C(=O)Cc1ccc2c(c1)OCO2,Potency,[5],"inconclusive: 3.98 µM [inhibitor, partial curve]"
same,activation,[1],inactive: -7.84%
O=[N+]([O-])c1cccc(CCl)c1,Potency,[3],"inconclusive: 50.1 µM [cytotoxic, partial curve]"
ClC1=C(Cl)C2(Cl)C3C(Cl)C=CC3C1(Cl)C2(Cl)Cl (stereo unspecified),caspase-3 activation,[7],inconclusive: 33.5%
same,Potency,[8],"inconclusive: 39.8 µM [cytotoxic, partial curve]"
same,Potency,[9],"inconclusive: 50.1 µM [cytotoxic, partial curve, poor fit]"
same,Potency,[10],"inconclusive: 39.8 µM [cytotoxic, partial curve, poor fit]"
same,Potency,[6],"inconclusive: 25.1 µM [cytotoxic, full curve]"
C[C@@H](Cc1ccc(OCC(=O)O)cc1)NC[C@H](O)c1cccc(Cl)c1,Potency,[1],"inconclusive: 0.01 µM [inhibitor, full curve]"
C=CC(=O)OCCO,Potency,[11],inconclusive: 76.6 µM [partial curve]
same,Potency,[9],"inconclusive: 50.1 µM [cytotoxic, partial curve, poor fit]"
same,Potency,[3],"inconclusive: 50.1 µM [cytotoxic, partial curve, poor fit]"
same,Potency,[10],"inconclusive: 50.1 µM [cytotoxic, single point]"
same,Potency,[12],"inconclusive: 50.1 µM [cytotoxic, single point]"
[Cd+2].[Cl-].[Cl-],Potency,[11],inconclusive: 77.5 µM [single point]
same,"activity change, negative = cytotoxicity",[2],inconclusive: -91.9%
same,Potency,[13],"inconclusive: 39.8 µM [falling, partial curve]"
same,Potency,[14],"inconclusive: 25.1 µM [cytotoxic, partial curve, poor fit]"
Clc1cc(Cl)c(Cl)c(Cl)c1,Potency,[5],inactive
same,Potency,[10],inactive
same,activation,[15],inactive: -0.964%
O=C1C(Cl)=C(Cl)C(=O)C(Cl)=C1Cl,Potency,[16],inconclusive: 57.4 µM [single point]
same,"activity change, negative = cytotoxicity",[2],inconclusive: -98.2%
same,Potency,[3],active: 25.1 µM
same,Potency,[17],active: 39.8 µM
same,Potency,[15],"inconclusive: 44.7 µM [side channel, falling, partial curve, poor fit]"
same,Potency,[14],"inconclusive: 39.8 µM [cytotoxic, partial curve, poor fit]"
same,Potency,[18],"inconclusive: 79.4 µM [cytotoxic, single point]"
C=C(C)CCl,Potency,[11],inactive: > 92 µM
Clc1ccc(C(c2ccc(Cl)cc2)C(Cl)Cl)cc1,Potency,[11],inconclusive: 75.9 µM [partial curve]
same,caspase-3 activation,[7],active: 127%
same,Potency,[8],"inconclusive: 50.1 µM [cytotoxic, partial curve]"
same,Potency,[13],"inconclusive: 50.1 µM [cytotoxic, single point]"
same,Potency,[6],"inconclusive: 50.1 µM [cytotoxic, partial curve]"
same,Potency,[15],"inconclusive: 44.7 µM [side channel, falling, partial curve, poor fit]"
same,Potency,[19],active: 66.8 µM
same,Potency,[18],"inconclusive: 44.7 µM [cytotoxic, partial curve, poor fit] and inconclusive: 70.8 µM [cytotoxic, single point]"
N#CSCSC#N,Potency,[11],active: 3.31 µM
same,Potency,[20],active: 10 µM
same,Potency,[6],active: 12.6 µM
same,Potency,[14],active: 44.7 µM and active: 39.8 µM
same,Potency,[18],"inconclusive: 70.8 µM [cytotoxic, partial curve, poor fit]"
ClC1=C(Cl)C2(Cl)C3C(Cl)C(Cl)CC3C1(Cl)C2(Cl)Cl (stereo unspecified),Potency,[16],inconclusive: 87.2 µM [single point]
same,caspase-3 activation,[7],active: 204%
same,Potency,[8],"inconclusive: 50.1 µM [cytotoxic, partial curve]"
same,Potency,[4],"inconclusive: 50.1 µM [cytotoxic, single point]"
same,Potency,[10],"inconclusive: 79.4 µM [cytotoxic, single point]"
same,Potency,[17],"inconclusive: 50.1 µM [cytotoxic, partial curve]"
same,Potency,[15],"inconclusive: 70.8 µM [side channel, falling, single point]"
CC(C)(COCC1CO1)COCC1CO1 (stereo unspecified),Potency,[11],inconclusive: 125 µM [single point]
